Assay results reported in the supplement of paper PMC8183993.
Where “and” joins values, the source holds several entries; their conditions need not be identical. Equal values may be shown once. Where a name gives a salt, the structure may show the parent alone. ± gives the standard deviation of the averaged measurements. Over roughly 3,100 compounds, “mean cytoplasmic OPP incorporation (global translation) relative to DMSO” has its median near 100; the lowest 2% begin near 56. This is one part of the list.

test system: U2OS; assay: mean cytoplasmic OPP incorporation (global translation) relative to DMSO (% of DMSO); higher = more protein synthesis; conditions: 10 µM; 24 h
Procedure: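 Primary image-based screen in U2OS cells: compounds at 10 uM for 24 h, then a 1 h o-propargyl-puromycin (OPP) pulse, click labelling, and high-throughput microscopy. Mean cytoplasmic OPP intensity and nuclei count were normalised to DMSO wells within each plate (DMSO = 100) and averaged over triplicate plates.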

SMILES	mean cytoplasmic OPP incorporation
CC1CCc2cc(F)cc3c(=O)c(C(=O)O)cn1c23 (stereo unspecified) [Flumequine]	88.3
COc1ccccc1OCCNCC(O)COc1cccc2[nH]c3ccccc3c12 (stereo unspecified) [Carvedilol]	118 ± 6.1
CCC(CC)[C@H](NC(C)=O)[C@@H]1[C@H](O)[C@@H](C(=O)O)C[C@H]1NC(=N)N [Peramivir  Trihydrate]	99.4
COc1cc2c(cc1OC)-c1cc3nc4ccccc4nc3n1C(C)(C)C2	103
CC(C)c1nc(CN(C)C(=O)N[C@H](C(=O)N[C@@H](Cc2ccccc2)C[C@H](O)[C@H](Cc2ccccc2)NC(=O)OCc2cncs2)C(C)C)cs1 [Ritonavir]	112
COc1c(O)cc2c(c1O)[C@@H]1O[C@H](CO)[C@@H](O)[C@H](O)[C@H]1OC2=O [Bergenin (Cuscutin)]	99.9
CC(C)[C@H]1CC[C@H](C(=O)N[C@H](Cc2ccccc2)C(=O)O)CC1 [Nateglinide (Starlix)]	97.2
Nc1cccc(-c2cc3c(Oc4cccc(O)c4)ncnc3[nH]2)c1	97.3 and 85.8
COc1ccc(C(C)=O)c(O)c1 [Paeonol]	108
COc1ccc(-n2nc(C(N)=O)c3c2C(=O)N(c2ccc(N4CCCCC4=O)cc2)CC3)cc1 [Apixaban]	123
COc1ccc(CCCOC(Cn2ccnc2)c2ccc(OC)cc2)cc1 (stereo unspecified)	98 and 106
C[C@H]1CC[C@@]2(OC1)O[C@H]1C[C@H]3[C@@H]4CC[C@@H]5C[C@@H](O[C@@H]6O[C@H](CO)[C@H](O)[C@H](O)[C@H]6O[C@@H]6O[C@H](CO)[C@@H](O)[C@H](O)[C@H]6O)CC[C@]5(C)[C@H]4CC[C@]3(C)[C@H]1[C@@H]2C [Timosaponin A-III]	111
c1ccc(N2CCN(CCCOc3ccc4c(c3)OCO4)CC2)cc1 [BP 554 maleate]	105
Cc1cc(Cc2cc(C)cc(C(C)(C)C)c2O)c(O)c(C(C)(C)C)c1	103
CCn1cc(C(=O)O)c(=O)c2cc(F)c(N3CCNCC3)cc21 [Norfloxacin]	63.7
N[C@@H](C(=O)O)c1ccc(O)c(C(=O)O)c1 [(R)-3-Carboxy-4-hydroxyphenylglycine]	100
Cc1nc2c(OCc3ccccc3)cccn2c1CC#N	98.8
CCOC(=O)C1=C(C)NC(C)=C(C(=O)OC)C1c1cccc([N+](=O)[O-])c1 (stereo unspecified) [Nitrendipine]	97.86 ± 0.44
COc1cc(C[C@H]2C(=O)OC[C@@H]2Cc2ccc(OC)c(OC)c2)ccc1O [Arctigenin]	94
NS(=O)(=O)c1cc2c(cc1C(F)(F)F)NC(Cc1ccccc1)NS2(=O)=O (stereo unspecified) [Bendroflumethiazide]	103
CC(CN1c2ccccc2Sc2ccccc21)N(C)C (stereo unspecified) [Promethazine hydrochloride]	108
CNC(=O)c1ccccc1Sc1ccc2c(/C=C/c3ccccn3)n[nH]c2c1 [Axitinib]	98.1
CN(C)[C@@H]1CCc2[nH]c3ccc(NC(=O)c4ccc(F)cc4)cc3c2C1	104
CCOc1cc(N2CCC(O)CC2)ccc1Nc1ncc2c(n1)N(C)c1ccccc1C(=O)N2C	110
O=C(c1ccc(OCCN2CCCCC2)cc1)c1c(-c2ccc(O)cc2)sc2cc(O)ccc12 [Raloxifene hydrochloride]	113 ± 6.4
CC(C)[C@H](CO)Nc1nc(Nc2cc(N)cc(Cl)c2)c2ncn(C(C)C)c2n1 [Aminopurvalanol A]	93.2

SMILES	mean cytoplasmic OPP incorporation
CNC(=O)c1ccc(N2C(=S)N(c3cnc(C#N)c(C(F)(F)F)c3)C(=O)C23CCC3)cc1F	104
O=C1CC2(CCCC2)CC(=O)N1CCNCC1COc2ccccc2O1 (stereo unspecified)	106
CCOC(=O)[C@H](CCc1ccccc1)N[C@@H](C)C(=O)N1CCC[C@H]1C(=O)O [Enalapril maleate]	101
CCOC(=O)[C@H](CCc1ccccc1)N[C@@H](C)C(=O)N1CCC[C@H]1C(=O)O [Enalapril]	97.8
CO/N=C(\C(=O)N[C@@H]1C(=O)N2C(C(=O)O)=C(C[N+]3(C)CCCC3)CS[C@H]12)c1csc(N)n1 [Cefepime hydrochloride]	78.7
Cc1noc(NS(=O)(=O)c2ccc(N)cc2)c1C [Sulfisoxazole]	102 ± 7.8
CCc1cccc2c3c([nH]c12)C(CC)(CC(=O)O)OCC3 (stereo unspecified) [Etodolac]	96.9
CCc1cccc2c3c([nH]c12)C(CC)(CC(=O)O)OCC3 (stereo unspecified) [Etodolac (Lodine)]	101
CCC[C@H](NC(=O)[C@@H]1[C@H]2CCC[C@H]2CN1C(=O)[C@@H](NC(=O)[C@@H](NC(=O)c1cnccn1)C1CCCCC1)C(C)(C)C)C(=O)C(=O)NC1CC1 [Telaprevir (VX-950)]	102
C[C@@H]1CN(CC(=O)Nc2ccc3c(c2)Cc2cccc(-c4cc(=O)cc(N5CCOCC5)o4)c2S3)C[C@H](C)O1	121
CC[N+](CC)(CC)CCC(O)(c1ccccc1)C1CCCCC1 (stereo unspecified) [Tridihexethyl chloride]	101
C[C@]12CC[C@@H]3c4ccc(O)cc4CC[C@H]3[C@@H]1C[C@@H](O)[C@@H]2O [Estriol]	104 ± 9.1
CN(C)CCCO[C@@H]1[C@H]2OC(C)(C)O[C@H]2O[C@@H]1[C@H](O)CO [Amiprilose hydrochloride]	107
Cc1nc(N)sc1-c1ccnc(Nc2ccc(N3CCOCC3)cc2)n1	93.4
C=CC(=O)Nc1ccc2ncnc(Nc3ccc(OCc4cccc(F)c4)c(Cl)c3)c2c1	122 ± 29
CC(Oc1c(Cl)cccc1Cl)C1=NCCN1 (stereo unspecified) [Lofexidine]	105
CC1=C(CC(=O)O)c2cc(F)ccc2/C1=C\c1ccc([S+](C)[O-])cc1 (stereo unspecified) [Sulindac]	101 ± 8.4
C=CC(=O)N1CCC[C@@H](n2nc(-c3ccc(Oc4ccccc4)cc3)c3c(N)ncnc32)C1	105 ± 2.3
COc1c(OCCCN2CCOCC2)ccc2c1N=C(NC(=O)c1cnc(N)nc1)N1CCN=C21	94.1
[I-].[K+] [Potassium iodide]	103
O=C1N(c2ccccc2)c2ccccc2C1(Cc1ccncc1)Cc1ccncc1 [Linopirdine dihydrochloride]	100
CC(C)CCC[C@@H](C)[C@H]1CC[C@H]2[C@@H]3C(=O)C=C4C[C@@H](O)CC[C@]4(C)[C@H]3CC[C@]12C [7-Ketocholesterol]	112
Cc1cc(-n2c(=O)[nH]c(=O)n(C)c2=O)ccc1Oc1ccc(SC(F)(F)F)cc1 [Toltrazuril]	100
Cc1ccccc1N1C(=O)c2cc(S(N)(=O)=O)c(Cl)cc2NC1C (stereo unspecified) [Metolazone]	92.5
COc1ccc(CNC(=O)Nc2ncc([N+](=O)[O-])s2)cc1	96.73 ± 0.15
OCCOCCN1CCN(C(c2ccccc2)c2ccc(Cl)cc2)CC1 (stereo unspecified) [Hydroxyzine dihydrochloride]	98.6

SMILES	mean cytoplasmic OPP incorporation
C=CC1=C(C(=O)O)N2C(=O)[C@@H](NC(=O)/C(=N\OCC(=O)O)c3csc(N)n3)[C@H]2SC1 [Cefixime]	87.6
Nc1cccc2c1CN(C1CCC(=O)NC1=O)C2=O (stereo unspecified) [Lenalidomide (Revlimid)]	98.8
CC(=O)Nc1ccc(O)cc1 [Acetaminophen]	106 ± 2.5
COc1nc(-c2ccc3c(c2)OCO3)n(-c2ccc(NC(=O)CSc3ccccc3)cc2)n1 [SecinH3]	120
O=C(Nc1ccc(-c2ccnc(Nc3ccc(N4CCOCC4)cc3)n2)cc1)C1CCCN1 (stereo unspecified)	115
CCS(=O)(=O)Nc1ccc2c(c1)/C(=C(/Nc1ccc(CN3CCCCC3)cc1)c1ccccc1)C(=O)N2 [Hesperadin]	56.2
COc1ccc2[nH]c([S+]([O-])Cc3ncc(C)c(OC)c3C)nc2c1 (stereo unspecified) [Omeprazole]	99.5 ± 2.1
N[C@H](C(=O)O)[C@H](OCc1ccccc1)C(=O)O (racemic)	103
N=C(N)N/N=C/c1c(Cl)cccc1Cl [Guanabenz acetate]	97.2 ± 8.3
OC(CCN1CCCCC1)(c1ccccc1)C1CCCCC1 (stereo unspecified) [Trihexyphenidyl-D,L Hydrochloride]	107
CCCc1nc(C(C)(C)O)c(C(=O)O)n1Cc1ccc(-c2ccccc2-c2nnn[nH]2)cc1 [Olmesartan]	98.2
OC[C@H]1NC[C@@H](O)[C@@H](O)[C@@H]1O [1-Deoxymannojirimycin hydrochloride]	103
Brc1c(NC2=NCCN2)ccc2nccnc12 [UK 14,304 tartrate]	98
Brc1c(NC2=NCCN2)ccc2nccnc12	102
CN(C)CCOC(=O)COc1ccc(Cl)cc1 [Meclofenoxate hydrochloride]	102
CC(C)(C)c1cc(O)ccc1O [tert-Butylhydroquinone]	99.2
CC(N)C12CC3CC(CC(C3)C1)C2 (stereo unspecified) [Rimantadine Hydrochloride]	97.5
Fc1cc(-c2cccc3ncc(-c4cnn(C5CCNCC5)c4)nc23)cc(F)c1CN1CCOCC1	91.8
CCC(=O)NC[C@H](Cc1ccc(OCCc2nc(-c3ccccc3)oc2C)cc1)N/C(C)=C\C(=O)c1ccc(C(F)(F)F)cc1	97.9
COc1ccc(C[C@@H]2c3cc(OC)c(OC)cc3CC[N@+]2(C)CCC(=O)OCCCCCOC(=O)CC[N@@+]2(C)CCc3cc(OC)c(OC)cc3[C@H]2Cc2ccc(OC)c(OC)c2)cc1OC [Cisatracurium besylate (Nimbex)]	118
CCOC(=O)c1c(C)n(C)c2ccc(O)cc12 [Mecarbinate]	94.7
Nc1cc(-c2ccncc2)c[nH]c1=O [Amrinone]	110
c1ccc2nc(C3=NCCN3)cnc2c1 [BU 239 hydrochloride]	101
CCC(=O)OCC(=O)[C@@]1(OC(=O)CC)[C@H](C)C[C@H]2[C@H]3[C@H]([C@@H](O)C[C@@]21C)[C@@]1(C)C=CC(=O)C=C1C[C@H]3Cl [Alclometasone dipropionate]	97.9
